Experimental data reported in patent US6743604.

Experiments:
[1] = target: T1, human IL-13 receptor α1 chain (cDNA clone 3.1) expressed on transiently transfected COS7 cells (human, UniProt P78552 22-427); test: radioligand binding (displacement of iodinated ligand by cold ligand) on COS7 cells transfected with IL13Rα1
T1 construct: also called IL13Rα1; IL-13 R α1
T1 sequence: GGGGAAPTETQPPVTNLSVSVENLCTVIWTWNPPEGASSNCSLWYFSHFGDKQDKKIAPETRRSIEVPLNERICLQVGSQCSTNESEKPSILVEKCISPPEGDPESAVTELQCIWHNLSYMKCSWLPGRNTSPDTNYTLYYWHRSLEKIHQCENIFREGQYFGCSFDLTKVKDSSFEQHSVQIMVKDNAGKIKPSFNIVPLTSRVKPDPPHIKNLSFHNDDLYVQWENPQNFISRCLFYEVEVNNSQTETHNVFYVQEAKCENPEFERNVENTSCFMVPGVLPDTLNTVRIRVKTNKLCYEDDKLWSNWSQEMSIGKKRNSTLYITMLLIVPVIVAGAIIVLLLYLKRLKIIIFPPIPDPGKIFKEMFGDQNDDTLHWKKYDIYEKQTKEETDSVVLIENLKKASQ

[2] = target: T2, human IL13Rα1 co-expressed with human IL4Rα on transiently co-transfected COS7 cells (heterologous IL4/IL13R … (human, UniProt P24394 26-825)); test: radioligand binding on COS7 cells co-transfected with IL13Rα1 and IL4Rα; low affinity sites
T2 construct: whole, on cells; Both cDNAs were co-transfected in COS7 cells; also called IL13Rα1 + IL4Rα1
T2 sequence 1: T1 sequence
T2 sequence 2: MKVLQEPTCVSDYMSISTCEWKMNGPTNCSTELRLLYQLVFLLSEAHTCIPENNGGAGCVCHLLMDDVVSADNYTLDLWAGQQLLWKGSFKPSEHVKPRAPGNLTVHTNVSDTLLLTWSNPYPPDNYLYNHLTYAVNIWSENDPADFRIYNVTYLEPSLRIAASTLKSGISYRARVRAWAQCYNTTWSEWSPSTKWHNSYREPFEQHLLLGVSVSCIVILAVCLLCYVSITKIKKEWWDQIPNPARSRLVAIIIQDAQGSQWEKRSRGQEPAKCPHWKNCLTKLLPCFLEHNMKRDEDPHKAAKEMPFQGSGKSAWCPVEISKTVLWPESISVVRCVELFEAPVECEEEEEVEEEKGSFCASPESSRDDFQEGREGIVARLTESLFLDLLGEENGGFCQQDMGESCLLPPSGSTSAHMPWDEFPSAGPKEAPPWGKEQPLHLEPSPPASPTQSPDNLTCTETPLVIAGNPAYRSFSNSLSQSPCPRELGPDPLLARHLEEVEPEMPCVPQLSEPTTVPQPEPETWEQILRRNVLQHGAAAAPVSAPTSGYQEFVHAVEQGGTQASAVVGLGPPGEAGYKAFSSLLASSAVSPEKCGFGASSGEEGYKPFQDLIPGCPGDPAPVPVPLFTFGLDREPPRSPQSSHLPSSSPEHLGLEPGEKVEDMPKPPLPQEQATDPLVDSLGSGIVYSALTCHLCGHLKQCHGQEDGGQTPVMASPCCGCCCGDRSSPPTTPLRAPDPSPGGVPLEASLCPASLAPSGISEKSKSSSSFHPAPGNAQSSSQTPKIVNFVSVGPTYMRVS

[3] = target: T2, human IL13Rα1 co-expressed with human …; test: radioligand binding on COS7 cells co-transfected with IL13Rα1 and IL4Rα; high affinity sites

Kd [1]: 1.43 nM | Kd [2]: 6.29 nM | Kd [3]: 0.0459 nM
B1: human IL-13 (ligand)
chain: not shown
